# Test results as given in paper PMC4336329 (PLoS ONE, 2015).
# Among all 310,000 compounds or so, about 2,200 (0.71%) showed an effect of 50% or more. The effect is printed as a negative number. The list shows a part of the results.
# Target: human ether-à-go-go-related gene (hERG) potassium channel (human, UniProt Q12809)
# Experiment: primary screen, population patch clamp on CHO cells stably expressing hERG
# human ether-à-go-go-related gene (hERG) potassium channel, sequence (Q12809 whole entry, looked up): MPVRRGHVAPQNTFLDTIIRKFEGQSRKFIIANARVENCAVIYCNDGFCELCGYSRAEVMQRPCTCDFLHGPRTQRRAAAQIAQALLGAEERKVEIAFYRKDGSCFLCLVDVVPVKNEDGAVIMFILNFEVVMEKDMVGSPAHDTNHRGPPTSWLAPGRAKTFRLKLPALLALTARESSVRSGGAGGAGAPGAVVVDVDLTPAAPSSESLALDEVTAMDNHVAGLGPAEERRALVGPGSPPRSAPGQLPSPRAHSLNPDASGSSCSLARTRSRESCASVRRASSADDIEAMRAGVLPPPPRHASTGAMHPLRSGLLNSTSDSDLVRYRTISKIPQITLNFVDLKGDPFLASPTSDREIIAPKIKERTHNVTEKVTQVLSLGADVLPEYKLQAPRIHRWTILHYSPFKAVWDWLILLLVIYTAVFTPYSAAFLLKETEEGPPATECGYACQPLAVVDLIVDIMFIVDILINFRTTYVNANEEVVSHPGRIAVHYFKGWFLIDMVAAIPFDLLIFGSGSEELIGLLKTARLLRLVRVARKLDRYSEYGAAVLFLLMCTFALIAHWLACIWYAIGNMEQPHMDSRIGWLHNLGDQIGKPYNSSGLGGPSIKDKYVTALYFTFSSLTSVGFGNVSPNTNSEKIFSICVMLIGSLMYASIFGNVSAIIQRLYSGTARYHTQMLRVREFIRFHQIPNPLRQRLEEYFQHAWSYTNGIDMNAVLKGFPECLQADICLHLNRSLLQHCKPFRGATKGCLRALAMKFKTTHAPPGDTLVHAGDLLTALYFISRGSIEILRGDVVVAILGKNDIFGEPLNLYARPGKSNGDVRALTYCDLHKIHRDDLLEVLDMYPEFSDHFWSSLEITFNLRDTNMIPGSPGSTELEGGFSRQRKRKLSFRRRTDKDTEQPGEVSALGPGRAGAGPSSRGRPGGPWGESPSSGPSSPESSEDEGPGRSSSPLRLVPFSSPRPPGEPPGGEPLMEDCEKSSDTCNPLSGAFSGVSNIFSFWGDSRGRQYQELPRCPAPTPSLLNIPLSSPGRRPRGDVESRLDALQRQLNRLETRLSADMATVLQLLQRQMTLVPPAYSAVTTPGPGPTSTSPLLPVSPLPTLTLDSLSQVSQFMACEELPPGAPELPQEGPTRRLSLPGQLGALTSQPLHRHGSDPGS
row,Compound,"hERG current change (%, negative = inhibition) at 1uM [%]"
1,COc1cc2[nH]ccc(=O)c2cc1OC,6.98
2,CC(=O)N(C)c1ccc(N=Nc2c(C)[nH]n(C(N)=S)c2=O)cc1,5.64
3,COc1ccc(CCNC(=O)CSc2ccccc2)cc1OC,13.5
4,Cc1ccc(NS(=O)(=O)c2cc(OCC(N)=O)c(C)cc2Cl)cc1C,2.15
5,COc1ccc(N=C(C)C2=C(O)CSC2=O)cc1,4.56
6,CN(C)c1ccc(/C=N\NC(=S)SCN2C(=O)C3CCC(C)(C2=O)C3(C)C)cc1 (centres unmarked),8.65
7,CCC(=O)NC(c1cccs1)c1cc([N+](=O)[O-])c2cccnc2c1O (centres unmarked),5.56
8,CCNc1nc(NC(C)(C)C)nc(SCC(N)=O)n1,7.57
9,Cc1cc(Cl)ccc1NC(=S)NCCc1ccc(Cl)cc1,11.4
10,CCCc1cc(=O)oc2c(C)c(OCC(=O)NC3CC(C)(C)NC(C)(C)C3)ccc12,10.2
11,CCOC(=O)CSc1nc(C(C)(C)C)cc(C(F)(F)F)c1C#N,7.34
12,COc1cc(C(=O)Nc2ccc(F)cc2Cl)ccc1OCC(=O)N1CCOCC1,11.2
13,Cc1nnc(SCC(=O)NCc2ccco2)n1-c1ccccc1,21.7
14,COc1ccc(Cl)cc1NC(=O)c1cccc(N2C(=O)C3CC=CCC3C2=O)c1 (centres unmarked),3.43
15,Cc1c(C)n(CCC#N)c2ccc(Cl)cc12,3.74
16,COCCCNC(=O)/C(=C\c1cccn1C)NC(=O)c1cccs1,17.8
17,Cc1ccc(C)c(N(CC(=O)NN=C2CCN(C)CC2)S(=O)(=O)c2ccccc2)c1,5.29
18,O=C(O)CCCC(=O)N1N=C(c2ccco2)CC1c1ccco1 (centres unmarked),11.3
19,CC(=O)c1cccc(NS(=O)(=O)c2ccc(N/C=C/C(=O)c3ccc(F)cc3)cc2)c1,1.07
20,C=CCN([C@@H](CC(C)C)C(=O)OC)S(=O)(=O)N(CC=C)[C@@H](CC(C)C)C(=O)OC,18.4
21,CCN(CC)S(=O)(=O)c1cccc(S(=O)(=O)N2CCCCC2)c1,5.86
22,O=C(Nc1cc(Cl)cc(Cl)c1)N1CCCC1,12.7
23,COc1ccc(C(=O)N/C(=C\c2ccccc2)C(=O)NC(CCSC)C(=O)O)cc1 (centres unmarked),16.4

row,Compound,"hERG current change (%, negative = inhibition) at 1uM [%]"
1,Cc1cccc(NC(=O)CSCC(=O)Nc2cccc(S(=O)(=O)N3CCCCCC3)c2)c1,9.88
2,N#Cc1ccc(-c2ccco2)nc1SCc1ccccc1,3.03
3,CCCS(=O)(=O)N1CCCC(C(=O)Nc2ccc3c(c2)CCC3)C1 (centres unmarked),7.89
4,Cc1nc(-c2ccccc2)nc2[nH]c(C(C)C)cc(=O)c12,-5.88
5,CN(C(=O)c1ccccn1)c1nnc(-c2ccccn2)s1,10.1
6,CCCCNc1c(-c2ccc(OC)c(SC3CCCCC3)c2)nc2cc(C)ccn12.O=C(O)C(F)(F)F,11.8
7,CCCc1nc(SCC(=O)c2ccccc2)c2c(=O)n(C)c(=O)n(C)c2n1,7.9
8,O=C1C(=O)c2ccccc2C(O)=C1c1cccc([N+](=O)[O-])c1,13
9,CCN(C(=O)CSc1nc2c(cnn2-c2ccccc2)c(=O)[nH]1)C1CCS(=O)(=O)C1 (centres unmarked),4.66
10,Cc1ccc(-c2n[nH]c(=S)n2/N=C/c2c(C)[nH]n(-c3ccccc3)c2=O)cc1,13.5
11,COc1ccc(/C=C/C(=O)O)cc1OC,13.3
12,Cc1cc(-c2ccccc2N)n[nH]1,1.77
13,Cl.N#Cc1ccc(C(c2nnnn2Cc2ccccc2)N2CCCC2)cc1 (centres unmarked),9.21
14,Cc1nc(N2CCNCC2)c2c3c(sc2n1)CCCC3,1.04
15,CC1(c2nnc(-c3ccc(F)cc3)o2)CC(c2ccccc2)=NO1 (centres unmarked),10.7
16,Cc1ccc(C(O)P(=O)(OC2CCCCC2)OC2CCCCC2)cc1 (centres unmarked),7.38
17,C/C(=N\NC(=O)CSCc1ccc(Cl)cc1)c1ccc2c(c1)OCCO2,7.55
18,Cc1ccc(C2CC(c3ccccc3OC(F)F)Nc3ncnn32)cc1 (centres unmarked),2.81
19,COc1ccc(/C=N/NC(=O)c2ccc(C)cc2)cc1CN1CCN(c2ccc(F)cc2)CC1,-27
20,CCNC(=O)c1ccc(CSc2ccc(Cl)cc2)cc1,7.92
21,CC(OC(=O)c1ccccc1OCc1ccc(Cl)cc1)C(N)=O (centres unmarked),15.2
22,Cc1ccc(C(=O)N(CCCN(C)C)c2nc3ccc(Cl)cc3s2)cc1C.Cl,9.34
23,CCOc1ccc(NC(=O)Nc2cccs2)cc1,13.3

row,Compound,"hERG current change (%, negative = inhibition) at 1uM [%]"
1,O=C(O)c1n[nH]nc1-c1ccccc1,18.3
2,O=C(COc1ccccc1Cl)Nc1ccc(S(=O)(=O)Nc2ccccn2)cc1,13.1
3,CCn1c(=O)cc(SCC(=O)NCC2CCCO2)c2ccccc21 (centres unmarked),-2.95
4,CC1=CC2=NC(=O)CC(C)(C(=O)N(CC(=O)NC(C)(C)C)Cc3cccs3)N2C=C1 (centres unmarked),-2.79
5,Cc1ccc(NC(=S)N(CCN(C)C)Cc2cc3cc(C)ccc3[nH]c2=O)cc1,1.61
6,O=C(COC(=O)c1cccs1)c1ccc2ccccc2c1,-0.311
7,NS(=O)(=O)c1ccc(CCNC(=O)c2ccccc2Cc2ccccc2)cc1,-28.2
8,COc1cc(C)cc(CN2CCC(Cc3ccccc3)CC2)c1O,-6.99
9,O=C(N/N=C\c1ccccn1)c1cccc(C(=O)N/N=C\c2ccccn2)n1,4.23
10,CC1CCN(C(=O)c2cc3nc(-c4ccccc4)cc(-c4ccccc4)n3n2)CC1,-0.803
11,Cc1cccc2cc(CN(CC3CCCO3)C(=O)c3ccco3)c3nnnn3c12 (centres unmarked),5.52
12,O=C(CNC(=O)Cc1ccc(Cl)cc1)NCc1ccco1,11.4
13,CCCCn1c(=O)[nH]c(=O)c2c1nc(-c1ccc(-c3ccccc3Br)o1)n2CC,18.8
14,COc1ccc(-c2nc(CN3CCC(C(=O)NC4CCCC4)CC3)c(C)o2)cc1OC,-2.29
15,COc1ccc(OC)c(NC(=O)C2CCN(c3ncccn3)CC2)c1,5.56
16,CCOC(=O)c1c(C)oc2ccc(OCC(N)=O)cc12,15.3
17,CNC(=O)c1c(C)nn(-c2ccc(F)c(Cl)c2)c1-c1cc(C)on1,7.81
18,CCn1cc(NC(=O)Nc2ccc(OC)c(OC)c2)c(C(N)=O)n1,0.0335
19,COc1ccc(CCNC(=O)C(=O)NCC2OCCN2S(=O)(=O)c2ccc(Cl)cc2)cc1OC (centres unmarked),5.39
20,Cc1ccc(CS(=O)(=O)Cc2ccc(C(=O)N3CCC4(CC3)OCCO4)o2)cc1,-1.4
21,c1ccc(-c2nnc(SCc3cn4ccsc4n3)o2)cc1,3.34
22,CCOc1ccc(S(=O)(=O)NCc2ccncc2)cc1,3.83
23,C=CCn1c(SCC(=O)c2ccc(NS(=O)(=O)c3ccccc3)cc2)nnc1-c1cccs1,-2.03

row,Compound,"hERG current change (%, negative = inhibition) at 1uM [%]"
1,Cn1c(C=O)c(C#CC(C)(C)O)c2ccccc21,21.4
2,COc1cccc(C2C(C(=O)Nc3nc4ccccc4s3)=C(C)NC3=C2C(=O)CC(C)(C)C3)c1OC (centres unmarked),12.3
3,CC1(C)CC(=O)c2c(-c3cccnc3)n[nH]c2C1,2.86
4,CCOc1ccc(-n2c(SCc3cc(=O)oc4cc(C)ccc34)nnc2-c2cccnc2)cc1,-30.2
5,CC(c1ccc(F)cc1)n1c(-c2cccs2)n[nH]c1=S (centres unmarked),7.94
6,O=C(NCC1CCCO1)c1cc(C(=O)C2CCCCC2)c[nH]1 (centres unmarked),18
7,Cc1nc(-c2ccncc2)sc1C(=O)Nc1ccc(Cl)cc1,8.94
8,CC(C)CNC(=O)COC(=O)Cc1ccc(Cl)cc1,12.9
9,Cc1noc(C)c1S(=O)(=O)N1CCCC(C(=O)N2CCC(C)CC2)C1 (centres unmarked),8.93
10,Cc1c(OC(C)C(=O)NC(Cc2c[nH]c3ccc(O)cc23)C(=O)O)ccc2c1oc(=O)c1ccccc12 (centres unmarked),4.58
11,COc1ccc(CNC(=O)C(C)n2ccc3cc(S(=O)(=O)N4CCCCCC4)ccc32)cc1 (centres unmarked),10
12,CCOC(=O)c1c(C)c(C(=O)Nc2cc(F)ccc2F)c(C)n1C,13.7
13,COc1ccc(-n2nc(C(=O)Nc3ccc4c(c3)OCO4)c3c4ccccc4n(C)c3c2=O)cc1,5.92
14,COc1cc(/C=C/C(=O)Nc2cccc(S(=O)(=O)N3CCOCC3)c2)ccc1OCC#N,7.98
15,CC(C)CCN1CCN(CC#Cc2ccccc2)CC1CCO (centres unmarked),4.3
16,COc1cc(C2C(C(=O)c3cccs3)=C(O)C(=O)N2c2cc(C)on2)ccc1O (centres unmarked),2.84
17,CCOc1ccc(-c2[nH]ncc2-c2ccccc2)c(O)c1,15.5
18,CCn1c(SCC(=O)Nc2ccccc2Cl)nnc1C1CC1,18.3
19,Cc1onc(-c2ccccc2)c1NC(=O)N(CCC#N)Cc1cccs1,5.56
20,CCN(CC)S(=O)(=O)c1cc(C(=O)NC2=NCCS2)ccc1Cl,8.61
